In PMC6919601, “Identification of Plasmodium dipeptidyl aminopeptidase allosteric inhibitors by high throughput screening” (PLoS ONE, 2019):
Screen size: about 110,000 compounds; about 230 (0.21%) showed an effect of 50% or more. The list shows a part of the results.

What follows are compounds tested against DPAP1 (Plasmodium falciparum, UniProt Q8IIJ9) (assay: primary screen, percent inhibition; read by cleavage of a fluorogenic dipeptide substrate; higher = more effect of the substance).
Set-up: species or system P. falciparum D10 trophozoite lysates; single well
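Also: 30 min substrate incubation versus DMSO and 10 µM JCP410 controls.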

Sequence of DPAP1 (Q8IIJ9 whole entry, looked up): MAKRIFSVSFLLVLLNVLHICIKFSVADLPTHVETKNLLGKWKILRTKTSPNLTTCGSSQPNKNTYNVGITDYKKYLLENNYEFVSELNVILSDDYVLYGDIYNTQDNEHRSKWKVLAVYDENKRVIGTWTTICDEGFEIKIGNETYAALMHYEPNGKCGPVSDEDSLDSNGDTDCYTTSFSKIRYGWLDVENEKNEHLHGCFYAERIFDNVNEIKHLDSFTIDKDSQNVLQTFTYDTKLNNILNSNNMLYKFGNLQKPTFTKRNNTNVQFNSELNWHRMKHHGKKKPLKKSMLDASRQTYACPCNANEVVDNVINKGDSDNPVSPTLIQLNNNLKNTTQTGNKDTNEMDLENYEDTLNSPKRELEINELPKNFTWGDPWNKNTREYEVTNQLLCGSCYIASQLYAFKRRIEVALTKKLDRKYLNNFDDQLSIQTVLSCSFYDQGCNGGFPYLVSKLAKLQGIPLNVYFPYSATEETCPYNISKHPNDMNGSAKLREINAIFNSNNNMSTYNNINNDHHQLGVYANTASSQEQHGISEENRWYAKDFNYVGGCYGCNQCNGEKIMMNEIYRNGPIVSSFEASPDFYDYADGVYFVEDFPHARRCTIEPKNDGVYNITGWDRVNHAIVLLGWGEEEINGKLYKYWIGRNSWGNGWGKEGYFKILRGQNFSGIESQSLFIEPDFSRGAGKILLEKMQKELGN

Point of comparison: `COc1ccc(C(C)NC(=O)c2ccc(F)cc2)cc1OC` (stereo not drawn), “% Inhibition @ 10 uM” value 1.83%. Against it:
- CN1c2ccccc2-c2ccccc2C12C=Cc1c(ccc3ccccc13)O2 (stereo not drawn) — lower, 1.13%
- O=S(=O)(c1ccc(-c2cs/c(=N\c3ccccc3)n2CC2CCCO2)cc1)N1CCCC1 (stereo not drawn) — higher, 2.01%
- CN1CCC(O)(C#N)C2CCCCC21 (stereo not drawn) — lower, -5.47%
- CCOC(=O)c1[nH]c2ccccc2c1NC(=O)CC(C)C — lower, -1.29%
- Cc1noc2ncnc(N3CCCC(C(=O)NCc4ccc5c(c4)OCO5)C3)c12 (stereo not drawn) — lower, -4.51%
- CN(Cc1ccccc1)c1nnc(NC(=O)NC23CC4CC(CC(C4)C2)C3)s1 — lower, -6.58%
- CC(Cc1ccccc1)Nc1nc2c(ncn2C)c(=N)n1C (stereo not drawn) — higher, 5.29%
- O=C(OCc1ccco1)c1cc2cc(Br)cc(Br)c2oc1=O — lower, -0.85%
- CC1=C([N+](=O)[O-])C(c2ccccc2)NC(=O)N1C (stereo not drawn) — higher, 4.54%
- CCOc1ccc(-c2csc(/C(C#N)=C/c3ccccc3Cl)n2)cc1 — higher, 2.13%
- Cc1ccc(C)c(N2C(=O)C3CC=CC(C)C3C2=O)c1 (stereo not drawn) — lower, -6.91%
- COc1ccc(C(F)(F)F)cc1NC(=O)c1cccnc1 — higher, 2.49%
- CCc1nnc(SCc2nc(-c3ccc(OC)c(OC)c3)oc2C)c2cc3oc(C)cc3n12 — higher, 10.1%
- COc1ccc(-c2cc(-c3ccc(C)cc3)nc(OC)n2)cc1 — lower, -0.856%
- CCCCCc1ccc(-c2ccc(-c3noc(CCC)n3)cc2)cc1 — lower, -2%
- COc1ccc(-c2cc3nc(C)c(CCC(=O)NCCCN4CCCC4=O)c(C)n3n2)c(OC)c1 — lower, -10.4%
- NS(=O)(=O)c1ccc(NC(=O)c2ccc(F)cc2)cc1 — lower, -1.77%
- Cc1cc(C)nc(NC(=O)c2c(-c3ccccc3)noc2C)c1 — lower, -0.0555%
- O=C(Nc1ccc(Cl)c(Cl)c1)Nc1ccc2c(c1)OCO2 — lower, -0.436%
- CCOC(=O)N1CCC(NC(=O)CCc2nc3cccnc3n2-c2ccccc2)CC1 — lower, -0.0115%
- Cc1nc2c([N+](=O)[O-])c(Cl)ccc2s1 — lower, -3.48%
- Cc1[nH]c2ccc(C(=O)NCc3ccccc3Cl)cc2c1C — lower, -4.71%
- CC1=C(C(=O)Nc2ccccc2C)C(c2cccc(C)c2)C2=C(O)CCCC2=N1 (stereo not drawn) — lower, -4.12%
- CCC(CO)NS(=O)(=O)c1c(C)nc2sccn2c1=O (stereo not drawn) — lower, -1.97%
- CC(=O)Nc1sc2c(c1C(=O)Nc1ccc(Cl)cc1)CCC(C)C2 (stereo not drawn) — lower, -2.74%
- Cn1nc(-c2ccc(Cl)cc2)c2cc(C(=O)NCc3ccco3)sc21 — lower, -3.09%
- COc1ccccc1NS(=O)(=O)c1ccc(NC(C)=O)cc1 — lower, -3.95%
- Cc1onc(-c2ccccc2)c1C(=O)Nc1nccs1 — lower, 0.408%
- Cc1cccc(OCCCCN2CCCC2)c1C — lower, -6.44%
- CC1CCN(C(=O)C2CCN(S(=O)(=O)c3cccc4nonc34)CC2)CC1 — higher, 4.07%
- Cn1cc(Br)c(C(=O)N2CCN(c3cccc(Cl)c3)CC2)n1 — higher, 6.1%
- CCOC(=O)c1conc1-c1cccnc1 — lower, 0.219%
- CCC(C)NC(=O)C1CC(c2ccccc2OC)=NO1 (stereo not drawn) — higher, 13%
- Cc1ccc2[nH]c(/C(C#N)=C/c3cccn3-c3ccc(S(N)(=O)=O)cc3)nc2c1 — lower, -2.87%
- O=C(NCc1ccccc1)Nc1cccs1 — lower, -1.6%
- O=C(CSC1=NC(=O)C(Cc2ccccc2)C(=O)N1)Nc1ccc(Br)cn1 (stereo not drawn) — higher, 11.5%
- COc1ccc(C(CC(=O)O)CC(=O)O)cc1 — lower, -1.68%
- CC(CCc1ccccc1)NC(=O)CCNS(=O)(=O)c1ccc2nc(O)ccc2c1 (stereo not drawn) — lower, -5.23%
- N#C/C(=C\c1ccccc1F)c1nc(-c2ccc(Br)cc2)cs1 — lower, -3.04%
- COC(=O)C1=C(C)N=C2SCCC(=O)N2C1c1ccc(OCCC(C)C)cc1 (stereo not drawn) — lower, -1.18%
- CCc1ccc(OCCCSc2nc(-c3ccccc3)nc3cc(=O)[nH]n23)cc1 — higher, 2.31%
- Cc1ccc2nsnc2c1/N=C/c1c(O)nc(O)c(C#N)c1C — lower, 0.687%
- CC(Oc1ccc(Cl)cc1Cl)C(=O)Nc1ccc(S(=O)(=O)Nc2ncccn2)cc1 (stereo not drawn) — lower, -9.11%
- O=C(N/C(=C\c1ccccc1F)C(=O)N1CC2CC(C1)c1cccc(=O)n1C2)C1CCCCC1 (stereo not drawn) — lower, -3.18%
- COc1ccc(CCNCc2c(F)cccc2Cl)cc1OC — lower, -9.37%
- O=C(Cn1ccc2cc(S(=O)(=O)N3CCCC3)ccc21)NC1CC1 — higher, 4.78%
- CC(C)(C)NC(=O)c1ccc2snnc2c1 — lower, -1.74%
- O=C(NCCCN1CCOCC1)C1(c2ccccc2)CCCC1 — lower, -3.72%
- Cc1cccc(C(=N)NOC(=O)c2cccc(Br)c2)c1 — lower, -4.93%
- O=C(O)CCCC(=O)Nc1nc(-c2cccc3ccccc23)cs1 — lower, -5.63%
- O=C(COc1ccc(Cl)cc1)n1nc(-c2cccnc2)nc1NCc1cccs1 — lower, -4.75%
- CSc1nc(=O)c2c(n1C)NC(=O)CC2c1ccc(OC(C)C)cc1 (stereo not drawn) — lower, -4.71%
- O=C(NC1CCCCC1)c1ccc2c(c1)OCO2 — lower, -2.54%
- COc1ccc(-c2noc(N3CCC(Cc4ccccc4)CC3)n2)cc1OC — lower, -2.46%
- COc1ccc(OC)c(C2NC(=O)NC(C)=C2C(=O)Nc2ccc(C)cc2)c1 (stereo not drawn) — lower, -11%
- CCCCOc1ccc(C2=N/C(=C\c3ccccc3OC)C(=O)O2)cc1 — lower, -2.64%
- CCCOc1ccc(N2CC(C(=O)NC3=NCCS3)CC2=O)cc1 (stereo not drawn) — lower, 0.583%
- COc1ccc2c(c1OC)C(=O)N(c1ccc3c(c1)CCC3)C2=O — lower, -3.76%
- COc1cc(SC#N)ccc1/N=C/c1c(C)nn(-c2ccccc2)c1O — lower, -6.7%
- Cc1nn(CC(=O)NCCCN(C)C2CCCCC2)c(=O)c2cccn12 — lower, -7.52%
- Cc1cccn2cc(-c3ccc(NC(=O)C(C)C)cc3)nc12 — lower, -6.29%
- CC1CCN(S(=O)(=O)c2ccc(Cl)cc2Br)CC1 — higher, 2.78%
- CC(=O)NCc1nc2ccccc2n1Cc1ccccc1 — higher, 8.7%
- C=CCn1c(=O)sc2cc([N+](=O)[O-])ccc21 — higher, 2.91%
- COc1ccc(S(=O)(=O)Nc2ccc(NC(C)=O)cc2)c(Cl)c1Cl — lower, -4.49%
